From article PMC5386471
No constants are given. Whether binding was seen depends on the method and setting. In cells and extracts the contact can be indirect. Some entries that bind do so weakly or less than the wild type. For part of these data: Where a sequence is shown, tags or fusion partners need not be part of it. Values belong to the molecule of their own block, whether it stands above or below them.

The chains behind the UniProt entries cited, without tags or fusion partners. Residues count along the entry.
UniProt P25942, residues 21-277: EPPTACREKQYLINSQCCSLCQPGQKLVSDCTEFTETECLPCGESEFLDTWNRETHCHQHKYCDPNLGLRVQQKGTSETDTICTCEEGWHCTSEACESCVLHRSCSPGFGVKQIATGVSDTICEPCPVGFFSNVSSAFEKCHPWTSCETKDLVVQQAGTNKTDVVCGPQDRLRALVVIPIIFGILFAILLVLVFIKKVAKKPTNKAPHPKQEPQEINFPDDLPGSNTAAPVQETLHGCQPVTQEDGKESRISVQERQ
UniProt O00220, residues 24-468: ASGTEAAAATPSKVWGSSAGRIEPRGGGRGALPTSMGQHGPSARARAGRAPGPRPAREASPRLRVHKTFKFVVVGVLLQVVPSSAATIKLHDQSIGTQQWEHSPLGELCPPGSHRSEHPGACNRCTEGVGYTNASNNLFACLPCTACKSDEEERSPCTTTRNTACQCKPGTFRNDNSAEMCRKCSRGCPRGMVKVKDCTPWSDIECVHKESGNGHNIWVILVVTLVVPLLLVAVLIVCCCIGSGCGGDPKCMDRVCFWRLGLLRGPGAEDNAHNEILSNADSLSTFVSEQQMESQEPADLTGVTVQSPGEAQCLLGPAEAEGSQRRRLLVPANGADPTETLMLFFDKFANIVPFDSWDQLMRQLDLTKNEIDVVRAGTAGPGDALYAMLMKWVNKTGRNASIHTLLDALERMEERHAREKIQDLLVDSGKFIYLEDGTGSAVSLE
UniProt Q96RJ3: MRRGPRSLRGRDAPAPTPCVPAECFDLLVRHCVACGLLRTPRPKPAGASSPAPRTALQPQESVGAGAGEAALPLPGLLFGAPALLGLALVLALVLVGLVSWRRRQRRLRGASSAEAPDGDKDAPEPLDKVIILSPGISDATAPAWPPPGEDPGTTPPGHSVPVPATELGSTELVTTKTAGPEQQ
UniProt P25445, residues 26-335: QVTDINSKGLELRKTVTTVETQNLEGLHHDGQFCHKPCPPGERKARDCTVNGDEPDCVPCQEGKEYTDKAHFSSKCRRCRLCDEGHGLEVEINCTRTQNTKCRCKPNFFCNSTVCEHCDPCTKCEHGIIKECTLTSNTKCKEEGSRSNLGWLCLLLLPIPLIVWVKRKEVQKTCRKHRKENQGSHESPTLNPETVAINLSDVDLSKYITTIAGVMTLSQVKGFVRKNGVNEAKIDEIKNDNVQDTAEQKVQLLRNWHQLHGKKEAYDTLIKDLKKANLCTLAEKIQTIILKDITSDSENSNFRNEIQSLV
UniProt Q02223: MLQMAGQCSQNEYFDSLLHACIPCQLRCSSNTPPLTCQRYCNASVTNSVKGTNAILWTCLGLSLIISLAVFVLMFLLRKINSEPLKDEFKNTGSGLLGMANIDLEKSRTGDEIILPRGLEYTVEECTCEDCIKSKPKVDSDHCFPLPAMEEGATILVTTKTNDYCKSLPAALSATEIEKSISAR

Legend:
[1] = biological target: CD40 fused to ECFP or EYFP (UniProt P25942); test: FRET or BRET; flow cytometry FRET; HEK 293T cells transiently co-transfected with ECFP and EYFP fusion receptors, analysed 16-20 h post-transfection; percentage of FRET-positive cells gated with an ECFP-EYFP fusion protein (positive) and ECFP/EYFP co-transfection (negative); no ligand
[2] = biological target: CD40, endogenous (human (endogenous in BJAB and primary human B cells)) (UniProt P25942); test: proximity ligation; Duolink in situ PLA on fixed primary human B cells, non stimulated, activated with PMA/ionomycin or with anti-BCR (anti-IgM/IgG) plus CD40L; three donors
[3] = biological target: CD40, endogenous (human (endogenous in BJAB and primary human B cells)) (UniProt P25942); test: proximity ligation; Duolink in situ PLA on fixed TRAILR2-negative BJAB cells; rabbit anti-CD40 with mouse anti-CD95 or mouse anti-DR5; spots per cell counted in the focal plane
[4] = biological target: CD40, endogenous (human (endogenous in BJAB and primary human B cells)) (UniProt P25942); test: proximity ligation; Duolink in situ PLA on fixed TRAILR2-positive BJAB cells; rabbit anti-CD40 with mouse anti-CD95 or mouse anti-DR5; spots per cell counted in the focal plane
[5] = biological target: CD40, endogenous (human (endogenous in BJAB and primary human B cells)) (UniProt P25942); test: co-IP; native membrane fraction (ProteoExtract kit) of 1 x 10^7 TRAILR2-negative BJAB cells; agarose-conjugated anti-CD40 or protein A-loaded anti-Fas and anti-TRAILR2 antibodies; western blot; endogenous proteins
[6] = biological target: CD40, endogenous (human (endogenous in BJAB and primary human B cells)) (UniProt P25942); test: co-IP; native membrane fraction (ProteoExtract kit) of 1 x 10^7 TRAILR2-positive BJAB cells; agarose-conjugated anti-CD40 or protein A-loaded anti-Fas and anti-TRAILR2 antibodies; western blot; endogenous proteins

Molecule: TRAIL receptor 1 fused to ECFP or EYFP (from UniProt O00220 24-468)
- binding [1]: no binding

Molecule: BAFFR fused to ECFP or EYFP (from UniProt Q96RJ3 1-184) (receptor)
- binding [1]: no binding

Molecule: ErbB1 fused to ECFP or EYFP (from UniProt P00533 25-1210) (receptor)
- binding [1]: no binding

Molecule: ErbB2 fused to ECFP or EYFP (from UniProt P04626 23-1255) (receptor)
- binding [1]: no binding

Molecule: Fas fused to ECFP or EYFP (from UniProt P25445 26-335) (receptor)
- binding [1]: binds

Second part, led by results:

- binding [1]: no binding
Molecule: BCMA fused to ECFP or EYFP (from UniProt Q02223 1-184) (receptor)

- binding [2]: binds
- binding [3]: binds
- binding [5]: binds
Molecule: Fas, endogenous (from UniProt P25445 26-335) (receptor)
- binding [4]: no binding (condition: in TRAILR2-positive BJAB cells)
- binding [6]: no binding (condition: in TRAILR2-positive BJAB cells)

- binding [1]: no binding
B1: TACI fused to ECFP or EYFP (receptor, UniProt O14836 1-293)
chain: MSGLGRSRRGGRSRVDQEERFPQGLWTGVAMRSCPEEQYWDPLLGTCMSCKTICNHQSQRTCAAFCRSLSCRKEQGKFYDHLLRDCISCASICGQHPKQCAYFCENKLRSPVNLPPELRRQRSGEVENNSDNSGRYQGLEHRGSEASPALPGLKLSADQVALVYSTLGLCLCAVLCCFLVAVACFLKKRGDPCSCQPRSRPRQSPAKSSQDHAMEAGSPVSTSPEPVETCSFCFPECRAPTQESAVTPGTPDPTCAGRWGCHTRTTVLQPCPHIPDSGLGIVCVPAQEGGPGA
